The other results are listed elsewhere or left out. Cut-off read from the data, not from the text of the source: active = 3.2 or more and inactive = the rest. The signal is at background level for most entries.
Legend:
Assay in all cases: enrichment score (SH2-bound / input frequency) (ratio); bacterial display of known human phosphotyrosine sites (pTyr-Var adds point mutants) read by sequencing; higher = stronger binding; tyrosines were phosphorylated by kinases first
Details in all cases: peptide library: pTyr-Var
SHP2 C-SH2 domain E139D = molecular target: SHP2 C-SH2 domain E139D
[1] = molecular target: SHP2 C-SH2 domain wild-type
SHP2 N-SH2 domain L43F = molecular target: SHP2 N-SH2 domain L43F
SHP2 N-SH2 domain T42A = molecular target: SHP2 N-SH2 domain T42A
SHP2 N-SH2 domain T52S = molecular target: SHP2 N-SH2 domain T52S
[2] = molecular target: SHP2 N-SH2 domain wild-type

Measured: enrichment score
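Note: displayed peptides selected on beads carrying the immobilized SH2 domain, with library peptides lacking any tyrosine serving as negative controls.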

B1: CTNND1_Y221_YF (peptide)
chain: HFEDGYPGGSD
inactive: SHP2 C-SH2 domain E139D 0.499 | [1] 0.417 | SHP2 N-SH2 domain L43F 0.54 | SHP2 N-SH2 domain T42A 0.508 | SHP2 N-SH2 domain T52S 0.55 | [2] 0.534

B2: CSRP3_Y57 (peptide)
chain: HESEIYCKVCY
active: SHP2 C-SH2 domain E139D 3.7 | [1] 3.33 | SHP2 N-SH2 domain L43F 3.36 | SHP2 N-SH2 domain T42A 3.26 | SHP2 N-SH2 domain T52S 4.05
inactive: [2] 2.89

B3: CSNK1G2_Y195 (peptide)
chain: GLAKEYIDPET
inactive: SHP2 C-SH2 domain E139D 0.645 | [1] 0.833 | SHP2 N-SH2 domain L43F 0.584 | SHP2 N-SH2 domain T42A 0.56 | SHP2 N-SH2 domain T52S 0.73 | [2] 0.847

B4: CSNK2A1_Y131_L128S_YF (peptide)
chain: QTSTDYDIRFF
inactive: SHP2 C-SH2 domain E139D 0.588 | [1] 0.601 | SHP2 N-SH2 domain L43F 0.622 | SHP2 N-SH2 domain T42A 0.446 | SHP2 N-SH2 domain T52S 0.485 | [2] 0.842

B5: CST4_Y35_D36N (peptide)
chain: IPGGIYNADLN
inactive: SHP2 C-SH2 domain E139D 1.12 | [1] 0.851 | SHP2 N-SH2 domain L43F 1.13 | SHP2 N-SH2 domain T42A 1.18 | SHP2 N-SH2 domain T52S 1.1 | [2] 1.16

B6: CTNNB1_Y30_G34R (peptide)
chain: WQQQSYLDSRI
inactive: SHP2 C-SH2 domain E139D 0.781 | [1] 0.837 | SHP2 N-SH2 domain L43F 0.838 | SHP2 N-SH2 domain T42A 0.773 | SHP2 N-SH2 domain T52S 0.721 | [2] 0.733

B7: CSNK1G1_Y205 (peptide)
chain: KKHIPYREHKS
active: SHP2 C-SH2 domain E139D 4.93 | [1] 4.17 | SHP2 N-SH2 domain L43F 3.89 | SHP2 N-SH2 domain T42A 3.51 | SHP2 N-SH2 domain T52S 3.82 | [2] 3.81

B8: CSNK1A1_Y292_D297H_YF (peptide)
chain: TLNHQYDFTFH
inactive: SHP2 C-SH2 domain E139D 0.97 | [1] 0.899 | SHP2 N-SH2 domain L43F 0.808 | SHP2 N-SH2 domain T42A 0.914 | SHP2 N-SH2 domain T52S 0.949 | [2] 1.18

B9: CTNND2_Y1154 (peptide)
chain: PSRKDYETYQP
inactive: SHP2 C-SH2 domain E139D 0.886 | [1] 0.653 | SHP2 N-SH2 domain L43F 0.696 | SHP2 N-SH2 domain T42A 0.394 | SHP2 N-SH2 domain T52S 0.67 | [2] 0.743

B10: CTNNA1_Y177 (peptide)
chain: DLGIQYKALKP
inactive: SHP2 C-SH2 domain E139D 0.771 | [1] 0.706 | SHP2 N-SH2 domain L43F 0.773 | SHP2 N-SH2 domain T42A 0.645 | SHP2 N-SH2 domain T52S 0.743 | [2] 0.83

B11: CTNND1_Y213_YF (peptide)
chain: FPPDGYSRHFE
inactive: SHP2 C-SH2 domain E139D 0.856 | [1] 0.643 | SHP2 N-SH2 domain L43F 0.707 | SHP2 N-SH2 domain T42A 0.734 | SHP2 N-SH2 domain T52S 0.865 | [2] 0.943

B12: CSNK1A1_Y292 (peptide)
chain: TLNHQYDYTFD
inactive: SHP2 C-SH2 domain E139D 0.829 | [1] 0.647 | SHP2 N-SH2 domain L43F 0.811 | SHP2 N-SH2 domain T42A 0.966 | SHP2 N-SH2 domain T52S 0.753 | [2] 0.766

B13: CTNND2_Y1217 (peptide)
chain: YETSHYPASPD
inactive: SHP2 C-SH2 domain E139D 0.509 | [1] 0.491 | SHP2 N-SH2 domain L43F 0.53 | SHP2 N-SH2 domain T42A 0.623 | SHP2 N-SH2 domain T52S 0.419 | [2] 0.465

B14: CTCF_Y343 (peptide)
chain: VRHRRYKHTHE
inactive: SHP2 C-SH2 domain E139D 0.232 | [1] 0.173 | SHP2 N-SH2 domain L43F 0.253 | SHP2 N-SH2 domain T42A 0.238 | SHP2 N-SH2 domain T52S 0.246 | [2] 0.225

B15: CSNK1A1_Y294 (peptide)
chain: NHQYDYTFDWT
inactive: SHP2 C-SH2 domain E139D 1.09 | [1] 0.902 | SHP2 N-SH2 domain L43F 0.885 | SHP2 N-SH2 domain T42A 1.11 | SHP2 N-SH2 domain T52S 0.839 | [2] 0.795

B16: CTNNB1_Y30_I35S (peptide)
chain: WQQQSYLDSGS
inactive: SHP2 C-SH2 domain E139D 0.815 | [1] 0.894 | SHP2 N-SH2 domain L43F 1.05 | SHP2 N-SH2 domain T42A 0.622 | SHP2 N-SH2 domain T52S 0.754 | [2] 0.823

B17: CSNK1G1_Y205_R206K (peptide)
chain: KKHIPYKEHKS
active: SHP2 C-SH2 domain E139D 5.4 | [1] 4.42 | SHP2 N-SH2 domain L43F 4.8 | SHP2 N-SH2 domain T42A 4.09 | SHP2 N-SH2 domain T52S 4.66 | [2] 4.18

B18: CSNK1A1_Y292_D297H (peptide)
chain: TLNHQYDYTFH
inactive: SHP2 C-SH2 domain E139D 0.938 | [1] 0.823 | SHP2 N-SH2 domain L43F 0.774 | SHP2 N-SH2 domain T42A 0.76 | SHP2 N-SH2 domain T52S 0.694 | [2] 0.781

B19: CSRP3_Y57_C58G (peptide)
chain: HESEIYGKVCY
inactive: SHP2 C-SH2 domain E139D 0.927 | [1] 0.958 | SHP2 N-SH2 domain L43F 0.922 | SHP2 N-SH2 domain T42A 0.672 | SHP2 N-SH2 domain T52S 0.895 | [2] 0.733

B20: CTNND2_Y508_Q507P_YF (peptide)
chain: FRQLPYCPSVE
inactive: SHP2 C-SH2 domain E139D 1.08 | [1] 1.25 | SHP2 N-SH2 domain L43F 0.892 | SHP2 N-SH2 domain T42A 1 | SHP2 N-SH2 domain T52S 0.927 | [2] 1.33

B21: CTNNB1_Y30_D32G (peptide)
chain: WQQQSYLGSGI
inactive: SHP2 C-SH2 domain E139D 0.933 | [1] 0.706 | SHP2 N-SH2 domain L43F 0.775 | SHP2 N-SH2 domain T42A 0.885 | SHP2 N-SH2 domain T52S 0.684 | [2] 0.923

B22: CSRP3_Y57_YF (peptide)
chain: HESEIYCKVCF
active: SHP2 N-SH2 domain L43F 3.22 | SHP2 N-SH2 domain T52S 3.37
inactive: SHP2 C-SH2 domain E139D 2.92 | [1] 2.82 | SHP2 N-SH2 domain T42A 2.93 | [2] 2.66

B23: CTNNA1_Y222 (peptide)
chain: NVPILYTASQA
inactive: SHP2 C-SH2 domain E139D 0.843 | [1] 0.866 | SHP2 N-SH2 domain L43F 0.831 | SHP2 N-SH2 domain T42A 0.78 | SHP2 N-SH2 domain T52S 0.873 | [2] 0.851

B24: CTNND2_Y1154_P1159S (peptide)
chain: PSRKDYETYQS
inactive: SHP2 C-SH2 domain E139D 0.637 | [1] 0.671 | SHP2 N-SH2 domain L43F 0.82 | SHP2 N-SH2 domain T42A 0.716 | SHP2 N-SH2 domain T52S 0.584 | [2] 0.751

B25: CSNK2A3_Y131_I133T (peptide)
chain: QTLTDYDTRFY
inactive: SHP2 C-SH2 domain E139D 0.701 | [1] 0.617 | SHP2 N-SH2 domain L43F 0.635 | SHP2 N-SH2 domain T42A 0.609 | SHP2 N-SH2 domain T52S 0.769 | [2] 0.644

B26: CTNND1_Y213 (peptide)
chain: YPPDGYSRHYE
inactive: SHP2 C-SH2 domain E139D 0.666 | [1] 0.636 | SHP2 N-SH2 domain L43F 0.627 | SHP2 N-SH2 domain T42A 0.672 | SHP2 N-SH2 domain T52S 0.585 | [2] 0.367

B27: CSNK2A3_Y131_I133T_YF (peptide)
chain: QTLTDYDTRFF
inactive: SHP2 C-SH2 domain E139D 0.571 | [1] 0.704 | SHP2 N-SH2 domain L43F 0.874 | SHP2 N-SH2 domain T42A 0.62 | SHP2 N-SH2 domain T52S 0.731 | [2] 0.641

B28: CTNND1_Y217_Y217C_YF (peptide)
chain: GFSRHCEDGFP
inactive: SHP2 C-SH2 domain E139D 0.725 | [1] 0.82 | SHP2 N-SH2 domain L43F 0.678 | SHP2 N-SH2 domain T42A 0.614 | SHP2 N-SH2 domain T52S 0.63 | [2] 0.827

B29: CSNK1G2_Y206_E208Q (peptide)
chain: KKHIPYRQHKS
active: SHP2 C-SH2 domain E139D 5.27 | [1] 4.11 | SHP2 N-SH2 domain L43F 4 | SHP2 N-SH2 domain T42A 3.72 | SHP2 N-SH2 domain T52S 4.37 | [2] 3.71

B30: CSNK1A1_Y292_YF (peptide)
chain: TLNHQYDFTFD
inactive: SHP2 C-SH2 domain E139D 0.977 | [1] 0.846 | SHP2 N-SH2 domain L43F 0.828 | SHP2 N-SH2 domain T42A 0.752 | SHP2 N-SH2 domain T52S 1.03 | [2] 0.913

B31: CTNND2_Y1157_P1159S (peptide)
chain: KDYETYQSFQN
inactive: SHP2 C-SH2 domain E139D 0.727 | [1] 0.761 | SHP2 N-SH2 domain L43F 0.786 | SHP2 N-SH2 domain T42A 0.841 | SHP2 N-SH2 domain T52S 0.851 | [2] 1.14

B32: CTNND2_Y508 (peptide)
chain: YRQLQYCPSVE
inactive: SHP2 C-SH2 domain E139D 0.808 | [1] 0.796 | SHP2 N-SH2 domain L43F 0.777 | SHP2 N-SH2 domain T42A 0.708 | SHP2 N-SH2 domain T52S 0.653 | [2] 0.836

B33: CSNK1A1_Y294_D297H (peptide)
chain: NHQYDYTFHWT
inactive: SHP2 C-SH2 domain E139D 1.71 | [1] 1.89 | SHP2 N-SH2 domain L43F 2.28 | SHP2 N-SH2 domain T42A 2.09 | SHP2 N-SH2 domain T52S 1.86 | [2] 1.73

B34: CTNND1_Y217 (peptide)
chain: GYSRHYEDGYP
inactive: SHP2 C-SH2 domain E139D 0.773 | [1] 0.54 | SHP2 N-SH2 domain L43F 0.604 | SHP2 N-SH2 domain T42A 0.555 | SHP2 N-SH2 domain T52S 0.56 | [2] 0.561

B35: CTNND1_Y221_Y217C (peptide)
chain: HCEDGYPGGSD
inactive: SHP2 C-SH2 domain E139D 0.814 | [1] 0.621 | SHP2 N-SH2 domain L43F 0.723 | SHP2 N-SH2 domain T42A 0.921 | SHP2 N-SH2 domain T52S 0.728 | [2] 0.63

B36: CTNND1_Y217_YF (peptide)
chain: GFSRHYEDGFP
inactive: SHP2 C-SH2 domain E139D 0.782 | [1] 0.781 | SHP2 N-SH2 domain L43F 0.844 | SHP2 N-SH2 domain T42A 0.616 | SHP2 N-SH2 domain T52S 0.686 | [2] 0.849

B37: CTNND1_Y213_Y217C_YF (peptide)
chain: FPPDGYSRHCE
inactive: SHP2 C-SH2 domain E139D 0.711 | [1] 1.01 | SHP2 N-SH2 domain L43F 0.736 | SHP2 N-SH2 domain T42A 0.618 | SHP2 N-SH2 domain T52S 0.799 | [2] 0.827
